According to PubChem BioAssay (NCI):
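Assay format: 96-well plates, 48-hour exposure. GI50: concentration for 50% inhibition of growth. TGI is the concentration that stops growth completely.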

Test system: NCI-H322M lung
Assay: NCI tumour cell line growth inhibition, 48 h

COC[C@@H](CC(C)C)N=C1NC(=O)/C(=C/c2ccc3ncoc3c2)N1
GI50: 2.7 µM
TGI: > 100 µM
